Assay results published in US20250313546A1, “NUCLEIC ACID BINDERS” (UNIVERSITY OF STRATHCLYDE, priority 2022, published 2025).
At least one compound was matched to its structure with a doubt left.

Key:
[1] = tested on: PolyAU double stranded RNA; experiment: Fluorescence intercalator displacement (FID) assay, SYBR-safe probe; conditions: 20 μM compound, 30° C., lower % = stronger binding
Method: (§1) The ability of compounds of the invention to bind to DNA and RNA was assessed using a fluorescence intercalator displacement assay. Genomic double stranded DNA (salmon) or PolyAU double stranded RNA is treated with probe molecule (Sybr-Safe) that increases its fluorescence upon binding to nucleic acids.
(§2) polyAU RNA (Polyadenylic acid—Polyuridylic acid sodium salt, double-stranded homopolymer, P1537, Merck) or genomic DNA (Deoxyribonucleic acid sodium salt from salmon testes, D1626, Merck) was dissolved in 1 mM pH 7.4 phosphate buffer (containing 0.27 mM potassium chloride, 13.7 mM sodium chloride) to a concentration of 1 mg/mL in, SybrSafe (SYBR® Safe DNA Gel Stain, ×10,000 in DMSO, S33102 Invitrogen) was used as supplied by the manufacturer in DMSO, and compounds of the invention were prepared as 10 mM stocks in DMSO. These stock solutions were diluted appropriately with each other and 1 mM phosphate buffer to give test solutions comprised of 20 μM compound of the invention, 12500-fold dilution of SybrSafe and 3.76 ng/mL RNA/DNA. Control solutions of RNA/DNA and SybrSafe, RNA/DNA, and SybrSafe at these concentrations were also prepared. Test and control solutions were heated to 30° C. and the fluorescence of each solution was measured using the SYBER filter setting of a StepOnePlus using melt analysis mode (StepOne Software v2.3). The reduction of fluorescence due to the binding of the compound of the invention to the RNA/DNA was calculated as a normalised percentage based on the fluorescence measured due to the control with SybrSafe and RNA/DNA as maximum and the control with only SybrSafe as minimum.
(§3) A reduction in normalised % is indicative of probe displacement and thus strong nucleic acid binding.

[2] = tested on: Genomic double stranded DNA (salmon); experiment: as above; conditions: 20 μM compound, 30° C., lower % = stronger binding
Method: as §1, §2, §3

| SMILES | % Normalised Fluorescence with polyAU RNA [1] [%] | % Normalised Fluorescence with gDNA [2] [%] |
| --- | --- | --- |
| CCC[N+](C)(C)CCNC(=O)c1cc(NC(=O)c2cc(NC(=O)c3ccc(/C=C/c4cnc5ccccc5c4)cc3)cn2C)cn1C [Ic2, (E)-N,N-dimethyl-N-(2-(1-methyl-4-(1-methyl-4-(4-(2-(quinolin-3-yl)vinyl)benzamido)-1H-pyrrole-2-carboxamido)-1H-pyrrole-2-carboxamido)ethyl)propan-1-aminium] | 10 | 22 |
| CCCCCCCCCCCCCCCC[N+](C)(C)CCNC(=O)c1cc(NC(=O)c2cc(NC(=O)c3ccc(/C=C/c4cnc5ccccc5c4)cc3)cn2C)cn1C [Ic15, (E)-N,N-dimethyl-N-(2-(1-methyl-4-(1-methyl-4-(4-(2-(quinolin-3-yl)vinyl)benzamido)-1H-pyrrole-2-carboxamido)-1H-pyrrole-2-carboxamido)ethyl)hexadecan-1-aminium] | 42 | 82 |
| CC[N+](C)(C)CCNC(=O)c1cc(NC(=O)c2cc(NC(=O)c3ccc(/C=C/c4cnc5ccccc5c4)cc3)cn2C)cn1C [Ic1, (E)-N-ethyl-N,N-dimethyl-2-(1-methyl-4-(1-methyl-4-(4-(2-(quinolin-3-yl)vinyl)benzamido)-1H-pyrrole-2-carboxamido)-1H-pyrrole-2-carboxamido)ethan-1-aminium] | 4 | 13 |
| CCCCCCCCCC[N+](C)(C)CCNC(=O)c1cc(NC(=O)c2cc(NC(=O)c3ccc(/C=C/c4cnc5ccccc5c4)cc3)cn2C)cn1C [Ic9, (E)-N,N-dimethyl-N-(2-(1-methyl-4-(1-methyl-4-(4-(2-(quinolin-3-yl)vinyl)benzamido)-1H-pyrrole-2-carboxamido)-1H-pyrrole-2-carboxamido)ethyl)decan-1-aminium] | 26 | 71 |
| COCCOCCOCC[N+](C)(C)CCNC(=O)c1cc(NC(=O)c2cc(NC(=O)c3ccc(/C=C/c4cnc5ccccc5c4)cc3)cn2C)cn1C [Ic19, (E)-2-(2-(2-methoxyethoxy)ethoxy)-N,N-dimethyl-N-(2-(1-methyl-4-(1-methyl-4-(4-(2-(quinolin-3-yl)vinyl)benzamido)-1H-pyrrole-2-carboxamido)-1H-pyrrole-2-carboxamido)ethyl)ethan-1-aminium] | 14 | 28 |
| COCCOCC[N+](C)(C)CCNC(=O)c1cc(NC(=O)c2cc(NC(=O)c3ccc(/C=C/c4cnc5ccccc5c4)cc3)cn2C)cn1C [Ic18, (E)-2-(2-methoxyethoxy)-N,N-dimethyl-N-(2-(1-methyl-4-(1-methyl-4-(4-(2-(quinolin-3-yl)vinyl)benzamido)-1H-pyrrole-2-carboxamido)-1H-pyrrole-2-carboxamido)ethyl)ethan-1-aminium] | 36 | 26 |
| CCCCCCCCCCC[N+](C)(C)CCNC(=O)c1cc(NC(=O)c2cc(NC(=O)c3ccc(/C=C/c4cnc5ccccc5c4)cc3)cn2C)cn1C [Ic10, (E)-N,N-dimethyl-N-(2-(1-methyl-4-(1-methyl-4-(4-(2-(quinolin-3-yl)vinyl)benzamido)-1H-pyrrole-2-carboxamido)-1H-pyrrole-2-carboxamido)ethyl)undecan-1-aminium] | 41 | 56 |
| CCCCCCCCCCCCCCC[N+](C)(C)CCNC(=O)c1cc(NC(=O)c2cc(NC(=O)c3ccc(/C=C/c4cnc5ccccc5c4)cc3)cn2C)cn1C [Ic14, (E)-N,N-dimethyl-N-(2-(1-methyl-4-(1-methyl-4-(4-(2-(quinolin-3-yl)vinyl)benzamido)-1H-pyrrole-2-carboxamido)-1H-pyrrole-2-carboxamido)ethyl)pentadecan-1-aminium] | 46 | 93 |
| CCCC[N+](C)(C)CCNC(=O)c1cc(NC(=O)c2cc(NC(=O)c3ccc(/C=C/c4cnc5ccccc5c4)cc3)cn2C)cn1C [Ic3, (E)-N,N-dimethyl-N-(2-(1-methyl-4-(1-methyl-4-(4-(2-(quinolin-3-yl)vinyl)benzamido)-1H-pyrrole-2-carboxamido)-1H-pyrrole-2-carboxamido)ethyl)butan-1-aminium] | 14 | 18 |
| CCCCCCCCC[N+](C)(C)CCNC(=O)c1cc(NC(=O)c2cc(NC(=O)c3ccc(/C=C/c4cnc5ccccc5c4)cc3)cn2C)cn1C [Ic8, (E)-N,N-dimethyl-N-(2-(1-methyl-4-(1-methyl-4-(4-(2-(quinolin-3-yl)vinyl)benzamido)-1H-pyrrole-2-carboxamido)-1H-pyrrole-2-carboxamido)ethyl)nonan-1-aminium] | 32 | 65 |
| CCCCCC[N+](C)(C)CCNC(=O)c1cc(NC(=O)c2cc(NC(=O)c3ccc(/C=C/c4cnc5ccccc5c4)cc3)cn2C)cn1C [Ic5, (E)-N,N-dimethyl-N-(2-(1-methyl-4-(1-methyl-4-(4-(2-(quinolin-3-yl)vinyl)benzamido)-1H-pyrrole-2-carboxamido)-1H-pyrrole-2-carboxamido)ethyl)hexan-1-aminium] | 14 | 27 |
| CCCCC[N+](C)(C)CCNC(=O)c1cc(NC(=O)c2cc(NC(=O)c3ccc(/C=C/c4cnc5ccccc5c4)cc3)cn2C)cn1C [Ic4, (E)-N,N-dimethyl-N-(2-(1-methyl-4-(1-methyl-4-(4-(2-(quinolin-3-yl)vinyl)benzamido)-1H-pyrrole-2-carboxamido)-1H-pyrrole-2-carboxamido)ethyl)pentan-1-aminium] | 15 | 12 |
| CCCCCCCC[N+](C)(C)CCNC(=O)c1cc(NC(=O)c2cc(NC(=O)c3ccc(/C=C/c4cnc5ccccc5c4)cc3)cn2C)cn1C [Ic7, (E)-N,N-dimethyl-N-(2-(1-methyl-4-(1-methyl-4-(4-(2-(quinolin-3-yl)vinyl)benzamido)-1H-pyrrole-2-carboxamido)-1H-pyrrole-2-carboxamido)ethyl)octan-1-aminium] | 12 | 47 |
| CCCCCCCCCCCC[N+](C)(C)CCNC(=O)c1cc(NC(=O)c2cc(NC(=O)c3ccc(/C=C/c4cnc5ccccc5c4)cc3)cn2C)cn1C [Ic11, (E)-N,N-dimethyl-N-(2-(1-methyl-4-(1-methyl-4-(4-(2-(quinolin-3-yl)vinyl)benzamido)-1H-pyrrole-2-carboxamido)-1H-pyrrole-2-carboxamido)ethyl)dodecan-1-aminium] | 28 | 86 |
| CCCCCCCCCCCCCCCCCC[N+](C)(C)CCNC(=O)c1cc(NC(=O)c2cc(NC(=O)c3ccc(/C=C/c4cnc5ccccc5c4)cc3)cn2C)cn1C [Ic17, (E)-N,N-dimethyl-N-(2-(1-methyl-4-(1-methyl-4-(4-(2-(quinolin-3-yl)vinyl)benzamido)-1H-pyrrole-2-carboxamido)-1H-pyrrole-2-carboxamido)ethyl)octadecan-1-aminium] | 52 | 93 |
